Laboratory results: PubChem BioAssay AID1645882 (National Center for Advancing Translational Sciences (NCATS), 2021)
Screen size: about 16,000 compounds; about 120 (0.75%) were called active. Inconclusive results (about 4%) are left out. The call rests on the fitted dose curve; in most records, active means well fitted inhibition curve with a large enough effect; inconclusive means small, poorly fitted or top-dose-only effect; inactive means no such curve, though single readings can be large or run the other way. The list shows a part of the results.

The compounds below were run against Rap guanine nucleotide exchange factor 3 (Homo sapiens) (UniProt O95398) (assay: Validation qHTS for antagonist of cAMP-regulated guanine nucleotide exchange factor 3 (EPAC1)). Conditions: EPAC1 Rap1B-BODIPY-GDP exchange, fluorescence; series mostly up to 150 µM; activity change, negative = inhibition: at the top concentration.
Outline: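 Nucleotide exchange followed as fluorescence loss when BODIPY-GDP leaves Rap1B (480 nm excitation, 540 nm emission), read at 5 min intervals over 30 min. Reaction: 100 nM EPAC1, 250 nM RAP1B-BODIPY-GDP, 50 uM GDP; ATA and DMSO define normalization.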
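Further: plate controls were DMSO for no effect and ATA control for full effect; nearly all actives have a fitted effect of over 75% in size.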

Chain of UniProt O95398 (O95398 whole entry, looked up): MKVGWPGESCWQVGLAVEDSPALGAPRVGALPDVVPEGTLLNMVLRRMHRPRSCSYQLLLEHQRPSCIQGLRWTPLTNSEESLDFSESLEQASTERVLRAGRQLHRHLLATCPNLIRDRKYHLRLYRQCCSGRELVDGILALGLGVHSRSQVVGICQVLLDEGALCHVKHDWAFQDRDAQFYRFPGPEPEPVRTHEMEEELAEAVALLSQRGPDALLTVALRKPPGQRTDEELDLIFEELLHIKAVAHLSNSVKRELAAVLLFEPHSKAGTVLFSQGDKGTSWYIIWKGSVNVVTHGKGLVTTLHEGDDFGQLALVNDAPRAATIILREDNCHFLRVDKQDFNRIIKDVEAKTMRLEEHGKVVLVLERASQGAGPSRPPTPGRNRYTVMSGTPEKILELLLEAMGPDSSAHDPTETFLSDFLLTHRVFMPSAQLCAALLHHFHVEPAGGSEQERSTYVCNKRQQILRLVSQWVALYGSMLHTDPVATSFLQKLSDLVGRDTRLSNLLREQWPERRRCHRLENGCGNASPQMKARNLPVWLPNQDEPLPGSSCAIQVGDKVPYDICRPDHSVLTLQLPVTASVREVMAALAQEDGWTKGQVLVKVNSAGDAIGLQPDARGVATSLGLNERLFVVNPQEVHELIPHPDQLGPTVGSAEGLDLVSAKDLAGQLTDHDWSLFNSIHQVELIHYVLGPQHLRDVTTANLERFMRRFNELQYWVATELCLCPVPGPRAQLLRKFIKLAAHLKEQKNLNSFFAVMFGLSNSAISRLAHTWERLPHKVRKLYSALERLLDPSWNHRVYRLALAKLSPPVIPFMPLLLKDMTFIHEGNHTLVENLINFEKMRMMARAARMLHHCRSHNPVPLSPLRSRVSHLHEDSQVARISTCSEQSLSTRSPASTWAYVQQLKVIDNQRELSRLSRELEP

Activity change, negative = inhibition, inactive:
N[C@@H](Cn1ccc(=O)c(O)c1)C(=O)O 7.03% [at 75.8 µM]
O=C(Nc1ccc(Cl)c(C(F)(F)F)c1)[C@@H]1CC=C[C@@H]2CCN(C3CCCCC3)C(=O)[C@@H]21 5.32%
C/C=C/C=N/NC(=O)c1ccncc1 9.32%
COCC(=O)N1CCC2(CCCN(Cc3ccc(C#N)cc3)C2)CC1 22.4%
O=C(Cn1cccn1)N1CCOc2c(cc(-c3ncc(C(F)(F)F)cc3Cl)cc2OCC2CCCO2)C1 (centres undefined) 24.5%
COc1ccc(CNc2ncncc2-c2ccc(C(=O)N(C)C)cc2)c(OC)c1 -7.94%
COc1cc(O)c2c(=O)c(O)c(-c3ccc(O)c(O)c3)oc2c1 -14.1%
C[C@]12CCC3c4ccc(OC(=O)c5ccccc5)cc4CCC3C1CCC2=O (some centres undefined) 9.41%
COC(=O)[C@@H]1CCCN1C(=O)c1c(OC)cc(=O)n2c1CCN(Cc1ccc3c(c1)CCO3)CC2 11.5%
CCNc1ncc2nc(C)c(=O)n(Cc3cccs3)c2n1 17.9%
Oc1ccc(Cl)c2cccnc12
Cc1ncc2c(c1CNC(=O)c1cncs1)CCN(C(=O)c1ccc(C(C)(C)C)cc1)C2 6.84%
O=C(c1csnn1)N1CCC[C@@]2(CCN(Cc3ccccc3)C2)C1 6.66%
COc1ncc2ncc(=O)n(CCc3ccccc3)c2n1 10.6%
COC(=O)N1CCC2(CCCN(C(=O)Nc3ccccc3)C2)CC1 17.7%
Clc1ccccc1-c1nc(NC2CCNCC2)c2ccccc2n1 17.6%
CCC(=O)c1ccc(O)cc1 9.07%
Cc1ccccc1-c1cc(N(C)C)ncn1 5.11%
O=c1c(-c2ccc(Cl)cc2)nc2cnc(N3CCOCC3)nc2n1C1CC1 25.3%
CN(C)CC(C)(O)c1ccc2c(c1)CN(Cc1cn(C)c3ccccc13)CCO2 (centres undefined) 12.7%
Nc1ccc(-c2nc3ccc(-c4nc5ccc(N)cc5[nH]4)cc3[nH]2)cc1 9.13% [at 75.8 µM]
O=C(Nc1ccc(O)cc1)c1ccccc1O -10.3%
CS(=O)(=O)CCNCc1ccc(-c2ccc3ncnc(Nc4ccc(OCc5cccc(F)c5)c(Cl)c4)c3c2)o1 19%
Cc1noc(C)c1C(=O)N1CCC[C@@]2(CCN(C(=O)NC(C)C)C2)C1 16.2%
Cn1c(=O)c(-c2ccc(Cl)cc2)nc2cncnc21 22.2%
COc1cc(-c2coc3cc(OC)c(OC)c(OC)c3c2=O)cc(OC)c1OC 9%
COC(=O)CC1C(C)(C)C(OC(C)=O)C2CC3C4CC(=O)OC(c5ccoc5)[C@]4(C)CCC3[C@@]1(C)C2=O (some centres undefined) -2.67%
N#CC[C@H](Cc1ccccc1)N1CC[C@@H](O)CCC1=O 4.29%
CC(C)(Sc1cc(C(C)(C)C)c(O)c(C(C)(C)C)c1)Sc1cc(C(C)(C)C)c(O)c(C(C)(C)C)c1
CC(C)Cc1nc2cc(NS(=O)(=O)N(C)C)cc(C(=O)N3CCOc4ccccc4C3)c2n1C 4.07%
COc1cccc(Cn2c(=O)c(C)nc3cnc(N4CCN(C)CC4)nc32)c1 -2.56%
CC(C)C[C@@H](COc1ccccc1)N1CCN(Cc2ccccc2)CCC1=O -15.7%
CCNc1ncc2nc(-c3cc(F)cc(F)c3)c(=O)n(Cc3ccc(F)cc3)c2n1 12.3%
COc1ccc(-n2c(=O)c(C)nc3cnc(Nc4cccc(OC)c4)nc32)cc1 -6.75%
CN(CC1COCCO1)C(=O)c1cnn(-c2ncc3c(n2)-c2ccccc2CC3)c1C1CC1 (centres undefined) -12.6%
COCc1c(C(=O)N2CCN(c3ccccc3O)CC2)cnn1-c1nccc(-c2cccs2)n1 1.57%
CC(C)NC(=O)N1CCC2(CC1)CCN(C(=O)c1cccn1C)CC2 14.8%
O=C(NC1CCCCC1)[C@@H]1CC=C[C@@H]2CCN(Cc3ccc(Cl)c(Cl)c3)C(=O)[C@@H]21 -2.52%
COC(=O)CC1C2(C)CC34OC5(C)O[C@@]6(C7/C(=C(/O)C(C)C)C(=O)OC(c8ccoc8)[C@]7(C)C(OC(C)=O)C(OC(C)=O)[C@]6(O5)[C@@]13C)C(OC(C)=O)[C@]4(O)C2OC(=O)C(C)C (some centres undefined) -24.5%
COc1ccc(C2c3[nH]c4ccccc4c3CC3C(=O)N(CCc4ccc(OC)c(OC)c4)CC(=O)N32)cc1 (centres undefined) -22.9%
O=C(O)CCC(=O)N1CCCC1C(=O)O (centres undefined) -2.87% [at 75.8 µM]
Clc1ccccc1-c1cc(NCc2ccccc2)ncn1 -9.23%
CC1CN(Cc2cccn2-c2ncccn2)Cc2cc(Cl)ccc2O1 (centres undefined) -1.1%
CN1CCc2ccccc2Cc2[nH]c3ccccc3c2CC1
CC(O)(COc1ccccc1)c1ccc2c(c1)CN(Cc1ccc3nsnc3c1)CCO2 (centres undefined) -11.2%
C#Cc1cccc(C(=O)NCc2nc(-c3ccccc3NC(C)=O)oc2C)c1 8.96%
O=C(c1ccccc1)[C@@H]1O[C@H]1c1ccc(-c2ccccc2)cc1 4.59%
CCOC(=O)C1CCCN(C(=O)c2cnn(-c3ncc4c(n3)-c3ccccc3CC4)c2C)C1 (centres undefined) -13.5%
COc1ccc2c(c1)N(C[C@H](C)CN(C)C)c1ccccc1S2
COC(=O)c1ccccc1O 23.3%
CC(COc1ccccc1)NN (centres undefined) 16.6%
Cc1cnc(C)c(-c2cc(F)c3c(c2)CC(CNC(=O)c2cccc(Cn4cccn4)c2)O3)n1 (centres undefined) 17.4%
N#Cc1ccc(/C=C2/C=Cc3ccccc32)cc1 29.5%
COc1ccc(CN2CCCC(n3cc(C(=O)NC4CCCC4)nn3)C2)c2ccccc12 (centres undefined) -4.88%
COC(=O)N1CCC2(CC1)CN(C(=O)Nc1ccc(OC)cc1)C2 8.73%
Cc1c(C(=O)N2CC3CCC2C3)sc2ncnc(NCCc3c[nH]c4ccccc34)c12 (centres undefined) 1.27%
O=Cc1ccnc2ccccc12 -14%
O=C(NC1CC1)[C@@H]1C[C@H](Sc2nc3ccccc3[nH]2)CN1CC1CCCCC1 1.39%
CC[C@H](CC[C@@H](C)[C@H]1CC[C@H]2[C@@H]3CC=C4C[C@@H](O)CC[C@]4(C)[C@H]3CC[C@]12C)C(C)C 13.1%
COc1ccc(CN2CC[C@H]3C=CC[C@@H](C(=O)Nc4ccccc4)[C@H]3C2=O)cc1OC
Cc1cnc(C)c(-c2cccc3c2OC(CNC(=O)/C=C/c2ccc(F)c(F)c2)C3)n1 (centres undefined) 12.3%
CCCN(CCC)C(=O)C(CCC(=O)O)NC(=O)c1ccccc1 (centres undefined)
O=c1cnc2cnc(Oc3cccc(Cl)c3)nc2n1C[C@H]1CCCO1 -0.203%
CCCC[n+]1c(C)ccc2ccccc21 21.4%
